Target: T1, human VEGFA165 (human, UniProt P15692-4 27-191)
T1 construct: also called antigen VEGFA
T1 sequence (looked up): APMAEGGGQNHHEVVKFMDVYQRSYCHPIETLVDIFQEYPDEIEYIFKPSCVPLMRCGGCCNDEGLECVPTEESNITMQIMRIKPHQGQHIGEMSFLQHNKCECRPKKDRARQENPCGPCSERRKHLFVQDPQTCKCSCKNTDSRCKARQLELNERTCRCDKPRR
Assay: SPR, VEGFA165 on CM5; reference: aflibercept
Parameters: unit not given beside the values

B1: 2V1-SA1-3GS-Fc (Fc fusion)
chain: EVQLVESGGGLVQPGGSLRLSCAVSGRTFSSYTMGWFRQAPGKEREFVVAISKGGYKYDSVSLEARFTISRDNAKNTVYLQMNSLRPEDTAVYYCAATRAYGSSRLRLADTYEYWGQGTLVTVSSGGSEVQLVESGGGLVQPGGSLRLSCAVSGRTFSSYTMGWFRQAPGKEREFVVAISKGGYKYDSVSLEARFTISRDNAKNTVYLQMNSLRPEDTAVYYCAATRAYGSSRLRLADTYEYWGQGTLVTVSS[letters of human IgG1 Fc omitted]
KD as a fraction of aflibercept's KD: ~0.083
